Reference: publication PMC12136788
The list shows a part of the results.

T1: UNK ZnF1-3 (human, UniProt Q9C0B0 31-174)
T1 sequence: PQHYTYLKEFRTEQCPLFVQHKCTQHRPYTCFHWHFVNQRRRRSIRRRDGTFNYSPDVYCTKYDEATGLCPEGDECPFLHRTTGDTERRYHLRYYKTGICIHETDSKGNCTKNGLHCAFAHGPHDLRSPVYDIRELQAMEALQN

B1: chr17:29398750:29398751:-_ENSMUSG00000024007_ENSMUST00000024802|mus_hu|FALSE|FALSE (ssRNA)
RNA: GGGAGUUCUACAGUCCGACGAUCGUCACCUCCUUGGAUCAUGAAGUCUUUGAUAAUUCUGUGGAAUUUUGUGCCAUUGUAGUAACCUCGACGAGCCAACUCAGCAAAGUUCUUACAGGUCUUUGGAGCAUGCUUCCAGUACAGCAACAGAGGAUUGAGCAUCA
B2: chr8:104447970:104447971:+_ENSG00000164934_ENST00000297579|hu_hu|motif|central (ssRNA)
RNA: GGGAGUUCUACAGUCCGACGAUCAUAUACCUCCCUGCUUCGACUUUUGUCUACAGGAAAGAUUCGAAUAGAUUUAUCGAAACGGGCAGACACAAACUCCUUCCCAGUGGGAGAGUAAUCCACAUCAAGCACUGCAGAUACAUGCAACAGAGGAUUGAGCAUCA
B3: chr1:127303955:127303956:-_ENSMUSG00000026341_ENSMUST00000027579|perfect_dup|motif|central (ssRNA)
RNA: GGGAGUUCUACAGUCCGACGAUCUAUUACUGUACCCGUCAGCGUCCGCUCUCCUACUUGUCUUGAGGUCCAGGAUGCAGCGGAGGCAAGAACAGCCUGCACAGCAAUGUACAAGCCUGGAACAUUGAAGGAUUCAAACAUUAUCAACAGAGGAUUGAGCAUCA
B4: chr14:45754706:45754707:-_ENSMUSG00000021830_ENSMUST00000139526|mus_hu|FALSE|FALSE (ssRNA)
RNA: GGGAGUUCUACAGUCCGACGAUCCAGAACCAGGAAAUUCUGGAAACCUAGUCUGCCACAGGUUACUUUUAACACAAGGUUACUCAGCCUUGGCACGACUACCAUUUCGGGCAGGAUAAUUCUUUGUUGUGGGGCGCUGUCCAACAACAGAGGAUUGAGCAUCA
B5: chr3:100845581:100845582:-_ENSMUSG00000027864_ENSMUST00000102694|mus_hu|FALSE|FALSE (ssRNA)
RNA: GGGAGUUCUACAGUCCGACGAUCCCUGGUGGGGUAUACUUGUUGCCCGUCUUCCCACCACAGGCCCGGGCCAAGGAAAGGCUACUGUCAAUGCAGAAUCUAAUGUUUCUACCAUGUGCAUGGUCCCCUUGGUGGGGAAAACUCCAACAGAGGAUUGAGCAUCA
B6: chr9:49312907:49312908:-_ENSMUSG00000039542_ENSMUST00000166811|mus_mus|motif|central (ssRNA)
RNA: GGGAGUUCUACAGUCCGACGAUCAGCUGGCAUUUGGCAUGCUUCCUAAGAAACAGGAGUCCCCGUGGGAACUGAACUCAGCGGGCCAGAGUGCCACACUCCGCAUAUGGAACAAACACAAACUGAACGGAAAGUAUAACUUAUCAACAGAGGAUUGAGCAUCA
B7: chr4:148551591:148551592:-_ENSMUSG00000063077_ENSMUST00000060537|mus_hu|mus_mus_mus_hu_False|28_58 (ssRNA)
RNA: GGGAGUUCUACAGUCCGACGAUCACCUGACAAAAUUAAAUAUCCCUGUAAAUUAGACAAUAAGCAGCAGGCAACAAAGUCUAUGCUUUGGAAUAUGUGCCAGGAAAAAUCAUGUUUUUUUUAGAUCUCAAGAGACAGUUCACACAACAGAGGAUUGAGCAUCA
B8: chr8:13019134:13019135:+_ENSMUSG00000031442_ENSMUST00000123811|mus_hu|FALSE|FALSE (ssRNA)
RNA: GGGAGUUCUACAGUCCGACGAUCGGGGGCGGUGAGGUGCCCCUUCCUCGGGGCGUCCGGGGGCCGCGCCCUCCCCACGCCACCGCAGCCCCAGACAGCGCGCGGGUCUCCGGCGCCGAGGCCGCGCUACCCCUGCAGGUCGGACAACAGAGGAUUGAGCAUCA
B9: chr17:60770872:60770873:+_ENSG00000011028_ENST00000303375|hu_hu|hu_hu_hu_mus_True|58_98 (ssRNA)
RNA: GGGAGUUCUACAGUCCGACGAUCUCUUUAAAAAAAAUUCCUUUUUUACAAACAAUAAUAGCACAUUUCGAGAAUCAUCAACUACAGUAGAGGGUCCGCUUUGAGUUUUUGUUCACAUCGUCCUGCACUGGGACACGGGGACUGCAACAGAGGAUUGAGCAUCA
B10: 152481611_152481731_4040_3pUTR_ENSMUSG00000039037_ENSMUST00000044278|mouse|control|control (ssRNA)
RNA: GGGAGUUCUACAGUCCGACGAUCCUGGGAGGAGGCUGAUGAUAGCACUGGGGAGAGACGAGAAGGGAACAUACCAAGCCAAGCGAGCAGGGCUCCAAAUACCCCGGAACCACUGGGGUCUGUAAGCAGGGUUGUGUGUCCUGUCAACAGAGGAUUGAGCAUCA
B11: chr10:28884852:28884853:+_ENSG00000095787_ENST00000354911|hu_hu|FALSE|FALSE (ssRNA)
RNA: GGGAGUUCUACAGUCCGACGAUCAGAUGCUCCAUUAGCAUCAAAUGAUUUCUUUGGCUGGUGAUCAGACUGUAGCGUAAAUGGACUAGAAGGAACAGUGCUUGGGGUAGCAGUUGGAUGAACCACUGGUUUGAUGGGGUGCUGCAACAGAGGAUUGAGCAUCA
B12: chr17:62496344:62496345:-_ENSG00000108654_ENST00000581693|hu_mus|FALSE|FALSE (ssRNA)
RNA: GGGAGUUCUACAGUCCGACGAUCCCCAAAAUCUCUCUUAAGCAGAUUAGAGUAGCCUCUGUCAUAGUUUUCCCUGUCUCUAAAGGUAUUAAAUCCACCCCUUUUGCCUGCAGAGUAUCUGUCACGACGAUCGUCCUUCAUGCCCAACAGAGGAUUGAGCAUCA
B13: chr7:141438946:141438947:+_ENSG00000106028_ENST00000265304|hu_mus|hu_hu_hu_mus_True|98_98 (ssRNA)
RNA: GGGAGUUCUACAGUCCGACGAUCGACGAAAUACCUGACAGGUCUUCCUUCGAAACAUGGCUUCUGUUUUUCUUACAACCUAAUCUUUAGGCUUUUCCUAAAGGAAAGAAAGAAAAGAGAAAAAUGAUAAAUCAAGAAACUACACAACAGAGGAUUGAGCAUCA
B14: chr2:90620368:90620369:+_ENSMUSG00000008200_ENSMUST00000013759|mus_hu|FALSE|FALSE (ssRNA)
RNA: GGGAGUUCUACAGUCCGACGAUCUGUCUUGUUGUAUUUACUGCCACAUACUUGAGGGGAAAUUCUCAAAAUCAAGGAUAUGAACACCUGCUGCUGCCUGUAUGCCACCUAGUGUGCGAAACGACCGAGCUACCAGUUCUAGAACAACAGAGGAUUGAGCAUCA
B15: chr2:48034816:48034817:-_ENSG00000138081_ENST00000403359|hu_mus|motif|central (ssRNA)
RNA: GGGAGUUCUACAGUCCGACGAUCUCAUAUUCUCAAUCUGAAUACAUGUUAAACAAAAAAAAAAAAAUCAAUGCAGAAGUGCGGGCUCACAUUUUUACCAUAUUACAAAAAGCAAUUGGUACCCAUGUCCAUAAAGGCAGCAACCAACAGAGGAUUGAGCAUCA
B16: chr2:157386987:157386988:+_ENSMUSG00000067786_ENSMUST00000109526|perfect_dup|FALSE|FALSE (ssRNA)
RNA: GGGAGUUCUACAGUCCGACGAUCGGAGUACCUGAACACCUCACUUCUCGCAAUGGGCUGUGUCCCUGGAGGAUUUCGAAAAGCGAAUCCUACCCAGUAAAUGCAGCAUUCCAGGAACACCUGCAGCAGCACGCGGAAGAUGUACAACAGAGGAUUGAGCAUCA
B17: chr14:88400820:88400821:-_ENSG00000054983_ENST00000261304|hu_hu|FALSE|FALSE (ssRNA)
RNA: GGGAGUUCUACAGUCCGACGAUCGAGCUACCUCAGUGUUAGCAGCAAGGCUUCGAGGUCUGUACUACUCAAACCACUCCUAAGGGUAUGGCCAAUGCACAGUUUGAAUGUUAGGGAACACACCAGGUAAUGUUAAAGAUUCACCAACAGAGGAUUGAGCAUCA
B18: chr19:16212804:16212805:+_ENSG00000167460_ENST00000300933|hu_mus|hu_hu_hu_mus_False|58_108 (ssRNA)
RNA: GGGAGUUCUACAGUCCGACGAUCAACAAAUAUGCAAUGAAGGAAAGAUGUAACAUGGAACAGCAUUAAAGCUCAGUAUUACUAUAUAUGGGCAACAAUGAUCACCCCAGCAUUCUCGCUUGGAAUGCUUAAAGACAAUCUGUUCAACAGAGGAUUGAGCAUCA
B19: chr16:57506169:57506170:-_ENSG00000125170_ENST00000340099|hu_hu|motif|central (ssRNA)
RNA: GGGAGUUCUACAGUCCGACGAUCGCCACAACUCAAAUAGUGGUUAUUUACAAGAAGGUCUGUUCCCACAAAUCAGGACCCGGAAGUAUUAAAAAACAAAACCCAAAAAACAACAAAAAACCCCACACAACCAAAAGUUUGACGCAACAGAGGAUUGAGCAUCA
B20: chr11:5855929:5855930:+_ENSMUSG00000002741_ENSMUST00000002818|mus_mus|motif|central (ssRNA)
RNA: GGGAGUUCUACAGUCCGACGAUCACACGUCGUACGCGGCCUUGAGCAGCACCGCUUUCGGAUCGCCUUUGUAAAGGACACGGAGGCUGUACAGCUUCAUGGCGCCGCACCUUCGGGCCGCCGGCUGAGCCCCAGACCCGCUCCCAACAGAGGAUUGAGCAUCA
B21: chr9:75414013:75414014:-_ENSMUSG00000032186_ENSMUST00000064433|mus_hu|FALSE|FALSE (ssRNA)
RNA: GGGAGUUCUACAGUCCGACGAUCCUGGUAAAAUGUUACAGAUUAGUGGCAUGCAGGUAUUUUACAUUUUUAAGUGCAAUGAAAAAUGCUGCUUAUUCAUUUUGCUUGAAUGGAUGAAAACAACUAAAAUAAAUGCUUAAUUAACAACAGAGGAUUGAGCAUCA
B22: chr1:60039268:60039269:+_ENSMUSG00000041040_ENSMUST00000036540|mus_mus|FALSE|FALSE (ssRNA)
RNA: GGGAGUUCUACAGUCCGACGAUCCUGACCACACGAUGAAGUGUGAACAGGAAUAGUGCAGAAAACAGCAGUUUACAAAUACUUCACUCAAAUCACAAACUGUUGACAUCAAAAAAACAUAAAUCACAUAAUGUACAAAUAUUGCAACAGAGGAUUGAGCAUCA

biological target: T1, UNK ZnF1-3; test: nsRBNS (natural sequence RNA bind-n-seq); RBNS binding buffer (assumed for nsRBNS): 25 mM Tris pH 7.5, 150 mM KCl, 3 mM MgCl2, 0.01% Triton X-100, 500 ug/ml BSA, 20 U/ml SUPERase-In, 4 C; UNK is unkempt and MSI1 is Musashi-1; names of the RNAs are library labels; protein concentration not given here; high values mean tight binding

Row | Binder | binding signal
1 | B1 | 0.947 enrichment R
2 | B2 | 0.63 enrichment R
3 | B3 | 0.898 enrichment R
4 | B4 | 0.589 enrichment R
5 | B5 | 1.01 enrichment R
6 | B6 | 1.21 enrichment R
7 | B7 | 1.07 enrichment R
8 | B8 | 0 enrichment R
9 | B9 | 1.3 enrichment R
10 | B10 | 1.42 enrichment R
11 | B11 | 1.19 enrichment R
12 | B12 | 1.13 enrichment R
13 | B13 | 0.548 enrichment R
14 | B14 | 1.73 enrichment R
15 | B15 | 2 enrichment R
16 | B16 | 0.81 enrichment R
17 | B17 | 1.11 enrichment R
18 | B18 | 0.852 enrichment R
19 | B19 | 2.81 enrichment R
20 | B20 | 0.663 enrichment R
21 | B21 | 1.03 enrichment R
22 | B22 | 1.36 enrichment R
